According to the supplement of paper PMC8728848:
Some of the results follow.

How the values were obtained:
Assay in all cases: glycan array binding signal (z-score within array); higher = stronger binding
Conditions in all cases: glycan notation: IUPAC condensed, linker removed
Neu5Ac(a2-8)Neu5Ac = target: Neu5Ac(a2-8)Neu5Ac
Summary of the method: (§1)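 The binding signal is a Z-score computed within each array. Data were drawn from 3228 arrays in the Consortium for Functional Glycomics database, restricted to those with a known protein sequence. Scores were averaged over arrays of the same protein sequence at different concentrations or buffers, and over linkers, and negative values can be taken as non-binding.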

[1] = target: Neu5Ac(a2-8)Neu5Ac(a2-3)Gal(b1-3)GalNAc(b1-4)[Neu5Ac(a2-3)]Gal(b1-4)Glc
Summary of the method: as §1

[2] = target: Neu5Ac(a2-8)Neu5Ac(a2-3)Gal(b1-3)GalNAc(b1-4)[Neu5Ac(a2-8)Neu5Ac(a2-3)]Gal(b1-4)Glc
Summary of the method: as §1

[3] = target: Neu5Ac(a2-8)Neu5Ac(a2-3)Gal(b1-4)Glc
Summary of the method: as §1

[4] = target: Neu5Ac(a2-8)Neu5Ac(a2-3)Gal(b1-4)GlcNAc
Summary of the method: as §1

[5] = target: Neu5Ac(a2-8)Neu5Ac(a2-3)[Gal(b1-3)GalNAc(b1-4)]Gal(b1-4)Glc
Summary of the method: as §1

[6] = target: Neu5Ac(a2-8)Neu5Ac(a2-3)[GalNAc(b1-4)]Gal(b1-4)Glc
Summary of the method: as §1

[7] = target: Neu5Ac(a2-8)Neu5Ac(a2-8)Neu5Ac
Summary of the method: as §1

[8] = target: Neu5Ac(a2-8)Neu5Ac(a2-8)Neu5Ac(a2-3)Gal(b1-4)Glc
Summary of the method: as §1

[9] = target: Neu5Ac(a2-8)Neu5Ac(a2-8)Neu5Ac(a2-3)[Gal(b1-3)GalNAc(b1-4)]Gal(b1-4)Glc
Summary of the method: as §1

[10] = target: Neu5Ac(a2-8)Neu5Ac(a2-8)Neu5Ac(a2-3)[GalNAc(b1-4)]Gal(b1-4)Glc
Summary of the method: as §1

[11] = target: Neu5Ac(a2-8)Neu5Ac(a2-8)Neu5Ac(a2-8)Neu5Ac(a2-3)[GalNAc(b1-4)]Gal(b1-4)Glc
Summary of the method: as §1

[12] = target: Neu5Ac(a2-8)Neu5Gc(a2-3)Gal(b1-4)GlcNAc
Summary of the method: as §1

[13] = target: Neu5Ac(b2-6)Gal(b1-4)GlcNAc
Summary of the method: as §1

Neu5Ac(b2-6)GalNAc = target: Neu5Ac(b2-6)GalNAc
Summary of the method: as §1

[14] = target: Neu5Ac9Ac(a2-3)Gal(b1-3)GlcNAc
Summary of the method: as §1

[15] = target: Neu5Ac9Ac(a2-3)Gal(b1-4)GlcNAc
Summary of the method: as §1

[16] = target: Neu5Ac9Ac(a2-6)Gal(b1-4)GlcNAc
Summary of the method: as §1

[17] = target: Neu5Gc(a2-3)Gal(b1-3)GlcNAc
Summary of the method: as §1

[18] = target: Neu5Gc(a2-3)Gal(b1-3)[Fuc(a1-4)]GlcNAc
Summary of the method: as §1

Neu5Gc(a2-3)Gal(b1-4)Glc = target: Neu5Gc(a2-3)Gal(b1-4)Glc
Summary of the method: as §1

[19] = target: Neu5Gc(a2-3)Gal(b1-4)GlcNAc
Summary of the method: as §1

[20] = target: Neu5Gc(a2-3)Gal(b1-4)GlcNAc(b1-3)Gal(b1-4)GlcNAc(b1-2)Man(a1-3)[Neu5Gc(a2-3)Gal(b1-4)GlcNAc(b1-3)Gal(b1-4)GlcNAc(b1-2)Man(a1-6)]Man(b1-4)GlcNAc(b1-4)GlcNAc
Summary of the method: as §1

[21] = target: Neu5Gc(a2-3)Gal(b1-4)[Fuc(a1-3)]GlcNAc
Summary of the method: as §1

[22] = target: Neu5Gc(a2-3)Gal(b1-4)[Fuc(a1-4)]GlcNAc
Summary of the method: as §1

[23] = target: Neu5Gc(a2-6)Gal(b1-4)GlcNAc
Summary of the method: as §1

Neu5Gc(a2-6)GalNAc = target: Neu5Gc(a2-6)GalNAc
Summary of the method: as §1

[24] = target: Neu5Gc(a2-8)Neu5Ac(a2-3)Gal(b1-4)GlcNAc
Summary of the method: as §1

[25] = target: Neu5Gc(a2-8)Neu5Gc(a2-3)Gal(b1-4)GlcNAc
Summary of the method: as §1

[26] = target: Neu5Gc(a2-8)Neu5Gc(a2-3)Gal(b1-4)GlcNAc(b1-3)Gal(b1-4)GlcNAc
Summary of the method: as §1

[27] = target: Neu5Gc(a2-8)Neu5Gc(a2-6)Gal(b1-4)GlcNAc
Summary of the method: as §1

[28] = target: Neu5Gc(b2-6)Gal(b1-4)GlcNAc
Summary of the method: as §1

B1: MGL1 (Mus musculus), P49300 (protein)
chain: MIYENLQNSRIEEKTQEPGKAPSQSFLWRILSWTHLLLFSLGLSLLLLVVVSVIGSQNSQLRRDLGTLRATLDNTTSKIKAEFQSLDSRADSFEKGISSLKVDVEDHRQELQAGRDLSQKVTSLESTVEKREQALKTDLSDLTDHVQQLRKDLKALTCQLANLKNNGSEVACCPLHWTEHEGSCYWFSESEKSWPEADKYCRLENSHLVVVNSLEEQNFLQNRLANVVSWIGLTDQNGPWRWVDGTDFEKGFKNWAPLQPDNWFGHGLGGGEDCAHITTGGPWNDDVCQRTFRWICEMKLAKES
Question: Which “glycan array binding signal (z-score)” value (Neu5Ac(a2-8)Neu5Ac) does the source give for B1 here?
Answer: -0.151

Question: And the “glycan array binding signal (z-score)” value [1]?
Answer: -0.125

Question: And the “glycan array binding signal (z-score)” value [2]?
Answer: 0.861

Question: What about the “glycan array binding signal (z-score)” value [3] of the same binder?
Answer: -0.098

Question: What about the “glycan array binding signal (z-score)” value [4] of the same binder?
Answer: -0.551

Question: And the “glycan array binding signal (z-score)” value [5]?
Answer: -0.034

Question: What about the “glycan array binding signal (z-score)” value [6] of the same binder?
Answer: -0.557

Question: What about the “glycan array binding signal (z-score)” value [7] of the same binder?
Answer: -0.349

Question: What about the “glycan array binding signal (z-score)” value [8] of the same binder?
Answer: -0.021

Question: And the “glycan array binding signal (z-score)” value [9]?
Answer: -0.242

Question: And the “glycan array binding signal (z-score)” value [10]?
Answer: -0.398

Question: And the “glycan array binding signal (z-score)” value [11]?
Answer: -0.116

Question: And the “glycan array binding signal (z-score)” value [12]?
Answer: -0.429

Question: And the “glycan array binding signal (z-score)” value [13]?
Answer: -0.167

Question: What about the “glycan array binding signal (z-score)” value (Neu5Ac(b2-6)GalNAc) of the same binder?
Answer: -0.275

Question: What about the “glycan array binding signal (z-score)” value [14] of the same binder?
Answer: 0.339

Question: What about the “glycan array binding signal (z-score)” value [15] of the same binder?
Answer: -0.495

Question: And the “glycan array binding signal (z-score)” value [16]?
Answer: -0.429

Question: What about the “glycan array binding signal (z-score)” value [17] of the same binder?
Answer: -0.578

Question: What about the “glycan array binding signal (z-score)” value [18] of the same binder?
Answer: -0.087

Question: And the “glycan array binding signal (z-score)” value (Neu5Gc(a2-3)Gal(b1-4)Glc)?
Answer: 0.019

Question: And the “glycan array binding signal (z-score)” value [19]?
Answer: -0.351

Question: And the “glycan array binding signal (z-score)” value [20]?
Answer: -0.823

Question: What about the “glycan array binding signal (z-score)” value [21] of the same binder?
Answer: -0.246

Question: And the “glycan array binding signal (z-score)” value [22]?
Answer: -0.153

Question: And the “glycan array binding signal (z-score)” value [23]?
Answer: -0.358

Question: And the “glycan array binding signal (z-score)” value (Neu5Gc(a2-6)GalNAc)?
Answer: -0.314

Question: And the “glycan array binding signal (z-score)” value [24]?
Answer: 0.201

Question: What about the “glycan array binding signal (z-score)” value [25] of the same binder?
Answer: -0.431

Question: And the “glycan array binding signal (z-score)” value [26]?
Answer: -0.804

Question: What about the “glycan array binding signal (z-score)” value [27] of the same binder?
Answer: 0.061

Question: And the “glycan array binding signal (z-score)” value [28]?
Answer: -0.207
